Measured values reported in PMC3338918 (2012).
Numbering of substitutions follows the chain as printed.

What was measured:
Assay in all cases: SPR
murine VEGF-A164 [1] = biological target: T1, murine VEGF-A164 (mouse)
T1 chain: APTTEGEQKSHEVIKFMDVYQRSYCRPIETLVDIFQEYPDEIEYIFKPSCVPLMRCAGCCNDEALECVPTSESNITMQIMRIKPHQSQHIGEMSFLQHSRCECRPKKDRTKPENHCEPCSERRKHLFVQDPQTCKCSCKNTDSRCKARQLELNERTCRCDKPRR

murine VEGF-A120 [2] = biological target: T2, murine VEGF-A120 (mouse)
T2 chain: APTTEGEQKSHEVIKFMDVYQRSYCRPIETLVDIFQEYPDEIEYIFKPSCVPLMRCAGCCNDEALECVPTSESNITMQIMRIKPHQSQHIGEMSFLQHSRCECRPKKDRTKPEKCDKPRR

human PlGF-1 [3] = biological target: T3, human PlGF-1 (human, UniProt P49763-2 19-149)
T3 chain: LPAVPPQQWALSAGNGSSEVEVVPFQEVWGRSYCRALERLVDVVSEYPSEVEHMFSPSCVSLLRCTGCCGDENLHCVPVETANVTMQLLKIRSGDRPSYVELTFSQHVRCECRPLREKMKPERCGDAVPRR

rat VEGF-A164 [4] = biological target: T4, rat VEGF-A164 (rat, UniProt P16612-2 27-190)
T4 chain: T1 chain with S10A, I14V, I75V

rabbit VEGF-A165 [5] = biological target: T5, rabbit VEGF-A165 (rabbit)
T5 chain: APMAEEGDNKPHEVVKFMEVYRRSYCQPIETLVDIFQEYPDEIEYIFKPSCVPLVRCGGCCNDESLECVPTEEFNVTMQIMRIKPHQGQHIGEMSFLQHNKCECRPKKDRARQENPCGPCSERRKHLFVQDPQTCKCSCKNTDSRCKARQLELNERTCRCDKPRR

murine VEGF-A164 [6] = biological target: T1, murine VEGF-A164
murine VEGF-A120 [7] = biological target: T2, murine VEGF-A120
human PlGF-1 [8] = biological target: T3, human PlGF-1
murine PlGF-2 = biological target: T6, murine PlGF-2 (mouse, UniProt P49764 19-158)
T6 chain: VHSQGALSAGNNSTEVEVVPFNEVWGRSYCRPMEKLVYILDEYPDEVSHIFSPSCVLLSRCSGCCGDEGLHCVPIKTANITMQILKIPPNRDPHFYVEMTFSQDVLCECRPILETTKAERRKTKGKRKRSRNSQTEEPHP

rat VEGF-A164 [9] = biological target: T4, rat VEGF-A164
rabbit VEGF-A165 [10] = biological target: T5, rabbit VEGF-A165

B1: VEGF Trap (aflibercept) (Fc fusion)
chain: SDTGRPFVEMYSEIPEIIHMTEGRELVIPCRVTSPNITVTLKKFPLDTLIPDGKRIIWDSRKGFIISNATYKEIGLLTCEATVNGHLYKTNYLTHRQTNTIIDVVLSPSHGIELSVGEKLVLNCTARTELNVGIDFNWEYPSSKHQHKKLVNRDLKTQSGSEMKKFLSTLTIDGVTRSDQGLYTCAASSGLMTKKNSTFVRVHEK[skipping human IgG1 Fc]
Kd (murine VEGF-A164 [1]): 0.586 pM
Kd (murine VEGF-A120 [2]): 0.572 pM
Kd (human PlGF-1 [3]): 392 pM
Kd (rat VEGF-A164 [4]): 0.471 pM
Kd (rabbit VEGF-A165 [5]): 0.776 pM
koff (murine VEGF-A164 [6]): 1.64e-05 s⁻¹
koff (murine VEGF-A120 [7]): 1.23e-05 s⁻¹
koff (human PlGF-1 [8]): 0.00264 s⁻¹
koff (murine PlGF-2): 5.45e-05 s⁻¹
koff (rat VEGF-A164 [9]): 1.73e-05 s⁻¹
koff (rabbit VEGF-A165 [10]): 2.63e-05 s⁻¹
